Data taken from patent US20190169308A1 (ALLIGATOR BIOSCIENCE, published 2019).

Key:
[1] = target: T1, 5T4-Fc (human, UniProt Q13641 32-355, limits assumed); test: cell-based or functional assay
T1 sequence (looked up): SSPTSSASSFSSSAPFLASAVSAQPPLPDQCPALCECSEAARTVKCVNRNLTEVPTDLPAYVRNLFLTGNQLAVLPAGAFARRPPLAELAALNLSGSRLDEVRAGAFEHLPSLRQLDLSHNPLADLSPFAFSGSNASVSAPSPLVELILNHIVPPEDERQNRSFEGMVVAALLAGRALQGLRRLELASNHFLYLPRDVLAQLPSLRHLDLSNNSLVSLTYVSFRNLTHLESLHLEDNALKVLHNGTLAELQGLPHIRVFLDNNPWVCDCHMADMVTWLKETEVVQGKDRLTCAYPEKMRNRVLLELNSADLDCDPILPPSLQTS

[2] = target: T1, 5T4-Fc; test: dual ELISA: coated 5T4-Fc, detection with CD137-bio
[3] = target: T2, 5T4 (SPR antigen) (UniProt Q13641 32-355, limits assumed, biotinylated on the MASS-1 platform); test: SPR MASS-1, biotinylated antigen on streptavidin chip, bsAb injected (bivalent)
T2 construct: also called biotinylated 5T4
T2 sequence (looked up): T1 sequence (looked up)

[4] = target: biotinylated CD137 (UniProt Q07011 24-186, limits assumed, biotinylated); test: as above
UniProt Q07011, sequence (Q07011 24-186 limits assumed): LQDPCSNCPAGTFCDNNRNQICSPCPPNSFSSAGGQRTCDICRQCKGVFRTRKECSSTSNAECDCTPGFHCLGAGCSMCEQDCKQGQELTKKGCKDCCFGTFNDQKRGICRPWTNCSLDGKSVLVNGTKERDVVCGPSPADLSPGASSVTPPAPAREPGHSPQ

[5] = target: T3, cynomolgus 5T4 on transfected CHO cells (Macaca mulatta (cynomolgus), UniProt F7CT46 35-420); test: flow cytometry on CHO-K cells transfected with cynomolgus 5T4, anti-IgG(Fc)-PE, MFI
T3 construct: also called cyno5T4; cy5T4
T3 sequence: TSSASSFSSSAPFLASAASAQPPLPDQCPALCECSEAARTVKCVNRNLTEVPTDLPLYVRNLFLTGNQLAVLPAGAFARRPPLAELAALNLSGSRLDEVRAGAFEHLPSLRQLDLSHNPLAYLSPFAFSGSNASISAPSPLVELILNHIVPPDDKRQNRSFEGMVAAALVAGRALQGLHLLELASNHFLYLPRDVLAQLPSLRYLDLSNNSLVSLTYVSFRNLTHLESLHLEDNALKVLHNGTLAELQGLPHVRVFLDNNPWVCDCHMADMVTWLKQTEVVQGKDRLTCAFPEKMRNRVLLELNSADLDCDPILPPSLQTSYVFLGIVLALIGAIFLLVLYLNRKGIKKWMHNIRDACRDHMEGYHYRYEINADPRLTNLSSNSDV

[6] = target: T1, 5T4-Fc; test: dual ELISA: plate coated with 5T4-Fc, bsAb titrated, detection with CD137-bio + streptavidin-HRP, RLU; signal needs both arms
[7] = target: T2, 5T4 (SPR antigen); test: SPR MASS-1, scFv part of the bsAb against parental mAb

B1: 1618-1210 (bispecific antibody)
heavy: EVQLLESGGGLVQPGGSLRLSCAASGFTFSYGSMYWVRQAPGKGLEWVSSISSGSGSTYYADSVKGRFTISRDNSKNTLYLQMNSLRAEDTAVYYCARSSYYGSYYSIDYWGQGTLVTVSS[no letters for human IgG1 constant region]GGGGSGGGGS[no letters for about 100 residues]YYGGYYSAWMDYWGQGTLVTVSSGGGGSGGGGSGGGGSDIQMTQSPSSLSASVGDRVTITCRASQSISSYLNWYQQKPGKAPKLLIYAASSLQSGVPSRFSGSGSGTDFTLTISSLQPEDFATYYCQQTYGYLHTFGQGTKLEIK
light: DIQMTQSPSSLSASVGDRVTITCRASQSISSYLNWYQQKPGKAPKLLIYAASSLQSGVPSRFSGSGSGTDFTLTISSLQPEDFATYYCQQYYDNLPTFGQGTKLEIKRTVAAPSVFIFPPSDEQLKSGTASVVCLLNNFYPREAKVQWKVDNALQSGNSQESVTEQDSKDSTYSLSSTLTLSKADYEKHKVYACEVTHQGLSSPVTKSFNRGEC
notes: Morrison format IgG-scFv
IFN-γ release by human CD8+ T cells on plates coated with 5T4-Fc and anti-CD3, EC50 [1]: 0.6 to 0.9 nM
EC50 [2]: 0.2 nM
Kd [3]: 0.937 nM
koff [3]: 0.000455 s⁻¹
kon [3]: 486000 M⁻¹ s⁻¹
Kd [4]: 0.129 nM
koff [4]: 0.000162 s⁻¹
kon [4]: 1.26e+06 M⁻¹ s⁻¹
EC50 (read off the curve) [5]: ~4 nM
EC50 (read off the curve) [6]: ~0.4 nM

B2: 1618-1208 (bispecific antibody)
heavy: not shown
light: B1 light
notes: Morrison format IgG-scFv
fold reduction of affinity against the parental mAb [7]: ~6 fold
EC50 [2]: 1.47 nM
Kd [3]: 0.601 nM
koff [3]: 4.62e-05 s⁻¹
kon [3]: 76500 M⁻¹ s⁻¹
